According to PubChem BioAssay AID686978 (National Center for Advancing Translational Sciences (NCATS), 2013):
The campaign covered roughly 420,000 compounds. About 64,000 (15%) were called active. This list was built around the results that the source calls inconclusive (neither active nor inactive); the mix of calls is not that of the screen. Calls come from the whole dose curve; as a rule, active = well fitted inhibition curve with a large enough effect; inconclusive = small, poorly fitted or top-dose-only effect; inactive = flat fitted curve, though single readings scatter. Potencies of inconclusive entries are left out as doubtful fits.
% is set by controls: 0 for no effect and ±100 for the full control effect; potency is the fitted concentration of half-maximal effect; tags give direction and shape of the fitted curve.

Experiment: qHTS for Inhibitors of human tyrosyl-DNA phosphodiesterase 1 (TDP1): qHTS in cells in absence of CPT; note: nearly all actives have a fitted effect of over 55% in size
Settings: DT40 Tdp1-/- hTDP1 cells, no CPT, ATP luminescence, 48 h; activity change, negative = growth inhibition: at 46.2 µM (top of the series) unless noted
How it was run: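 No-CPT arm: Tdp1-/-;hTDP1 DT40 cells (400/well) plus compounds, incubated ≥48 hr at 37 °C. Readout CellTiter-Glo luminescence.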
For `CCCC1C(c2ccccc2)C(C#N)(C#N)C2(C#N)CC1(N)NC2=O` (configuration not stated), the “activity change, negative = growth inhibition” value was inactive: 2.33%. In the case of `Cc1cc(Cl)ccc1C(O)c1ncc(-c2ccc(C(F)(F)F)cc2)[nH]1` (configuration not stated), the Potency is reported as inconclusive [inhibitor, single point]. With `O=C(O)c1ccccc1NC(=O)C1CCN(S(=O)(=O)c2cccc3nsnc23)CC1` the Potency was active: 16.4 µM. For `Cc1cccc(CSCc2ccc(C(=O)NCCc3ccccc3)o2)c1`, the Potency was active: 13 µM. In the case of `COc1ccc2c(c1)C(=O)CCC2c1ccccc1` (configuration not stated), the Potency is reported as inconclusive [inhibitor, single point]. For `O=C(c1cc2ccccc2oc1=O)N1CCN(c2ccc(F)cc2)CC1`, the Potency was inconclusive [inhibitor, partial curve]. For `CC(C)CN1CCC1(C)C(=O)Nc1cc(-c2ccccc2)nn1C` (configuration not stated), the Potency was inconclusive [inhibitor, single point]. For `O=[N+]([O-])c1ccc(S(=O)(=O)N2CCN(c3ccc(N4CCOCC4)nn3)CC2)cc1`, the “activity change, negative = growth inhibition” value was inactive: -22%. In the case of `CS(=O)(=O)N(CC(=O)NCc1ccco1)c1cc(C(F)(F)F)ccc1Cl`, the Potency is reported as inconclusive [inhibitor, full curve, poor fit]. For `O=[N+]([O-])c1ccc2ncnc(Nc3ccc4c(c3)OCCO4)c2c1`, the Potency was inconclusive [inhibitor, partial curve]. In the case of `CCc1ccc(NC(=O)N(CCCN2CCOCC2)C(C)c2cc3cccc(OC)c3o2)cc1` (configuration not stated), the Potency is reported as inconclusive [inhibitor, single point]. With `COc1ccccc1CCNC(=O)Cc1c(C)c2cc3c(C)coc3cc2oc1=O` the Potency was inconclusive [inhibitor, full curve, poor fit]. In the case of `COc1ccccc1N1CCN(/N=C(\C)c2ccccc2O)CC1`, the Potency is reported as inconclusive [inhibitor, single point]. In the case of `CCCN(CCC)S(=O)(=O)c1ccc(C(=O)Nc2cccc(-c3nc4ccccc4[nH]3)c2)cc1`, the Potency is reported as active: 4.61 µM. In the case of `O=C(CSc1ccc(Br)cc1)Nc1cccc(S(=O)(=O)N2CCOCC2)c1`, the Potency is reported as inconclusive [inhibitor, single point]. With `CC(=O)c1ccc(NC(=O)CN(C)S(=O)(=O)c2cc3c(cc2Cl)NC(=O)CO3)cc1` the Potency was inconclusive [inhibitor, single point]. For `COCCCn1c(SCC(=O)NC(C)C)nnc1-c1ccccc1`, the Potency was active: 23.1 µM. With `Cc1ccc(/C([O-])=C(/C(=S)Nc2ccc(SC(F)F)cc2)[n+]2ccccc2)cc1[N+](=O)[O-]` the Potency was active: 11.6 µM. With `Cc1ccc(C)c(NC(=O)c2ccc(S(=O)(=O)C(F)F)cc2)c1` the “activity change, negative = growth inhibition” value was inactive: -20.4%. In the case of `O=C(Nc1cc([N+](=O)[O-])c2[nH]c(=O)c3ccccc3c2c1)C(F)(F)F`, the Potency is reported as active: 1.84 µM. In the case of `CSCc1ccc(C(=O)Nc2cc(C)cc(C)c2)cc1`, the Potency is reported as inconclusive [inhibitor, single point]. With `COc1ccc(CC(=O)Nc2ccc(S(=O)(=O)NCC3CCCO3)cc2)cc1` (configuration not stated) the Potency was inconclusive [inhibitor, partial curve]. For `Nc1c(-c2nc(-c3ccccc3)no2)nnn1CC(=O)Nc1cccc(F)c1`, the Potency was inconclusive [inhibitor, partial curve, poor fit]. For `CS(=O)(=O)n1nc(-c2ccc(Cl)cc2)nc1SCc1ccccc1`, the Potency was inconclusive [inhibitor, single point]. For `CN(Cc1c(C(=O)N(C)Cc2ccccc2)nc2ccccn12)CC1Cc2ccccc2O1` (configuration not stated), the Potency was active: 14.6 µM. In the case of `COc1ccc(CNC(=O)c2cccnc2Sc2ccc(C)c(C)c2)cc1`, the Potency is reported as inconclusive [inhibitor, full curve]. In the case of `CC(C)(C)c1ccc(S(=O)(=O)NCc2ccc(C(=O)NCC3CCCO3)cc2)cc1` (configuration not stated), the Potency is reported as inconclusive [inhibitor, single point]. For `COc1ccc(NC(=O)Cn2ncc(Cl)c(Cl)c2=O)cc1S(=O)(=O)N1CCOCC1`, the Potency was active: 10.3 µM. For `Cc1ccc(S(=O)(=O)NCc2ccc(C(=O)NCCN(Cc3ccccc3)C(C)C)cc2)cc1`, the Potency was active: 16.4 µM. With `CCc1cccc(C)c1NS(=O)(=O)Cc1ccccc1` the Potency was inconclusive [inhibitor, single point]. For `Nc1c(C(=O)Nc2ccc(S(=O)(=O)N3CCCC3)cc2)sc2nc3cc4c(cc3cc12)CCC4`, the Potency was active: 6.51 µM. With `Cc1ccc2nc(-c3ccc(Br)o3)oc(=O)c2c1` the Potency was inconclusive [inhibitor, single point]. In the case of `CCN(CC)C(=O)C1=C(C)N(Cc2ccc(C(C)(C)C)cc2)C(=O)C(CC(=O)NCc2ccco2)C1` (configuration not stated), the Potency is reported as active: 23.1 µM. For `COc1ccc(C(NC(=O)c2ccc(-c3ccccc3)cc2)c2ccccc2)cc1` (configuration not stated), the Potency was active: 13 µM. In the case of `Cc1sc2nc(SCC(=O)c3cccs3)n(Cc3ccco3)c(=O)c2c1C`, the Potency is reported as inconclusive [inhibitor, partial curve]. For `CCOC(=O)c1ccc(Nc2c(-c3cccc(O)c3)nc3nc[nH]n23)cc1`, the Potency was inconclusive [inhibitor, single point]. In the case of `COc1ccc2c3c([nH]c2c1)C1CC2C(CC(O)C(OC)C2C(=O)O)CN1CC3` (configuration not stated), the “activity change, negative = growth inhibition” value is reported as inactive: -11.2%. In the case of `CCOc1ccc(-n2c(C)nnc2SCC(=O)N(CC)CC)cc1`, the “activity change, negative = growth inhibition” value is reported as inactive: 18.6%. For `COc1cccc(C2SCC(=O)N2c2ccc(Cl)cc2)c1OC` (configuration not stated), the Potency was inconclusive [inhibitor, single point]. For `Cc1ccc(NCc2cccn2-c2nnc(N3CCC(C(=O)NCCC(C)C)CC3)s2)cc1`, the Potency was active: 20.6 µM. For `O=C(CCCCC(=O)NN=Cc1ccc(Cl)cc1)NN=Cc1ccc(Cl)cc1`, the Potency was inconclusive [inhibitor, partial curve, poor fit]. For `CCCN(CCC)C(=O)CSc1nc2n[nH]c(C)c2c(=N)n1-c1ccc(OC)cc1`, the Potency was active: 10.3 µM. With `COc1cc(OC)cc(-c2cc3cc(F)ccc3cn2)c1` the Potency was inconclusive [inhibitor, single point]. With `CC(NC(=O)CCC(=O)c1ccc(F)cc1)C1CC2CCC1C2` (configuration not stated) the Potency was inconclusive [inhibitor, partial curve, poor fit]. With `COc1ccc(-c2noc(CSc3nc4ccccc4c(=O)n3-c3ccccc3)n2)cc1OC` the Potency was inconclusive [inhibitor, single point]. For `CCOC(=O)/C(C)=N/Nc1nc(-c2ccc(NC(C)=O)cc2)cs1`, the Potency was inconclusive [inhibitor, single point]. In the case of `COc1ccccc1/C=C1\SC(=O)N(CCC(=O)N(C)C2CCS(=O)(=O)C2)C1=O` (configuration not stated), the “activity change, negative = growth inhibition” value is reported as inactive: -17.3%. With `Fc1ccc(CNCc2ccc3c(c2)OCO3)cc1` the Potency was inconclusive [inhibitor, single point]. With `CC(C)C[C@H](NC(=O)[C@@H]1Cc2c([nH]c3ccccc23)C2c3ccccc3C(=O)N21)C(=O)NCC1CCCO1` (some centres not stated) the Potency was inconclusive [inhibitor, single point]. In the case of `CCCCC(CC)CNCc1cccn1CCN1CCOCC1` (configuration not stated), the Potency is reported as inconclusive [inhibitor, single point]. For `COc1ccc([N+](=O)[O-])cc1NC(=O)CC1SC(=Nc2cccc(C)c2C)N(/N=C/c2cccc(OC)c2OC)C1=O` (configuration not stated), the Potency was “inactive”. In the case of `COc1ccc(NC(=O)c2n[nH]c(=O)c3ccccc23)cc1S(=O)(=O)N1CCCCC1`, the Potency is reported as inconclusive [inhibitor, single point]. For `CCOc1ccc(S(=O)(=O)NCCc2csc3nc(-c4ccc(F)cc4)nn23)cc1`, the Potency was active: 6.51 µM. In the case of `COc1cccc(C2=NS(=O)(=O)N(C)C(C(=O)Nc3ccccc3SC)=C2)c1`, the Potency is reported as inconclusive [inhibitor, single point]. For `Cc1cc(C(=O)Nc2ccccc2N2CCOCC2)c(C)o1`, the Potency was inconclusive [inhibitor, single point]. With `O=C(NCc1cccs1)c1ccc(CSc2nc3ccncc3n2Cc2ccccc2)cc1` the Potency was active: 18.4 µM. In the case of `CCOC(=O)C(=O)N1c2ccccc2C(N(C(=O)C(=O)OCC)c2ccccc2)CC1C` (configuration not stated), the Potency is reported as inconclusive [inhibitor, single point]. In the case of `COc1ccc(Cn2cc(Cn3c4ccccc4c(=O)n3C(C)C)nn2)cc1`, the “activity change, negative = growth inhibition” value is reported as inactive: -6.55%. For `Cc1ccc(CN2CCNC(=O)C2CC(=O)N(C)CCc2cnn(C)c2)cc1` (configuration not stated), the “activity change, negative = growth inhibition” value was inactive: 9.28%. For `CC1CCC(NC(=O)c2ccc(CS(=O)(=O)c3cccc(C(F)(F)F)c3)o2)CC1` (configuration not stated), the Potency was inconclusive [inhibitor, single point]. In the case of `COc1ccccc1-n1cc(C(=O)NCC(=O)N2CCN(c3ccccc3)CC2)c2ccccc2c1=O`, the Potency is reported as inconclusive [inhibitor, single point]. For `CN(C(=S)Nc1cccnc1)c1ccc(O)cc1`, the Potency was inconclusive [inhibitor, single point]. For `Cc1ccc(Cl)cc1N1CCN(CCCNC(=O)C2COc3ccccc3C2)CC1` (configuration not stated), the Potency was active: 3.66 µM. With `COc1ccc(-c2coc3c(C(=O)Nc4cccc(NS(C)(=O)=O)c4)cccc23)c(C)c1` the Potency was active: 20.6 µM. For `Cc1[nH]c2ccccc2c1SCCNC(=O)c1ccc(Br)o1`, the Potency was inconclusive [inhibitor, single point]. In the case of `O=S1(=O)NC(c2ccccc2)CC(CC2CCCCC2)O1` (configuration not stated), the Potency is reported as inconclusive [inhibitor, partial curve, poor fit]. For `COc1ccc(C(=O)NNC(=O)C(=O)NC2CCCCC2)cc1`, the Potency was inconclusive [inhibitor, single point].
